Test results reported in PubChem BioAssay AID686978 (National Center for Advancing Translational Sciences (NCATS), 2013).
About 64,000 (15%) of roughly 420,000 compounds were called active. The inconclusive results got no clear call from the source; some entries with a clear call stand among them for comparison. Calls follow the shape of the dose curve; as a rule, active = well fitted inhibition curve with a large enough effect; inconclusive = small, poorly fitted or top-dose-only effect; inactive = flat fitted curve, though single readings scatter. Potencies of inconclusive entries are left out as doubtful fits.
% is scaled to controls: 0 for no effect and ±100 for the full control effect; potency is read from the fitted curve at half-maximal effect; tags tell the direction and shape of the fitted curve.

Experiment: qHTS for Inhibitors of human tyrosyl-DNA phosphodiesterase 1 (TDP1): qHTS in cells in absence of CPT; also: nearly all actives have a fitted effect of over 55% in size
Conditions: DT40 Tdp1-/- hTDP1 cells, no CPT, ATP luminescence, 48 h; activity change, negative = growth inhibition: at 46.2 µM (top of the series) unless noted
Method in brief: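 Growth kinetics read by CellTiter-Glo luminescence after ≥48 hr at 37 °C. Cells: DT40 Tdp1-/- stably carrying human TDP1, 400 per well, compound exposure in the absence of CPT (DMSO vehicle).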
With COc1ccc(CN2CCOc3ccc(C(O)c4cccnc4)cc3C2)cc1 (configuration not stated) the Potency was inconclusive [inhibitor, single point]. For Cc1ccc(S(=O)(=O)SCCCSS(=O)(=O)c2ccc(C)cc2)cc1, the Potency was active: 20.6 µM. In the case of COc1c(C)cc(C(=O)C2CCCN(C(=O)c3snnc3C)C2)cc1C (configuration not stated), the Potency is reported as “inactive”. For O=C(Cc1ccc(Cl)cc1)NC(=S)Nc1ccccc1O, the Potency was inconclusive [inhibitor, single point]. In the case of Cc1ccccc1NC(=O)CCN1CCN(Cc2ccccc2)CC1, the Potency is reported as “inactive”. For CCC(C)(C(=O)NC1CCCC1)N(C(C)=O)c1ccc(C)cc1 (configuration not stated), the activity change, negative = growth inhibition was inconclusive: -37.3% [inhibitor]. In the case of O=c1[nH]c2ccc(S(=O)(=O)Nc3ccc(Br)cc3)cc2[nH]1, the Potency is reported as “inactive”. For Cc1c(/C=N\NC(=O)c2csc3ccccc23)cnn1C, the Potency was inconclusive [inhibitor, partial curve, poor fit]. For CCn1c(O)c(/C=N/N=C/c2ccc(OC)cc2)c2cc(C3=NNC(=O)CC3)ccc21, the Potency was “inactive”. With O=C(CN1CCN(CC(=O)Nc2ccccc2Cl)CC1)Nc1ccc2c(c1)OCCO2 the Potency was active: 23.1 µM. For C[C@H](CO)N1C[C@H](C)[C@@H](CN(C)S(=O)(=O)c2ccccc2)Oc2c(NS(=O)(=O)c3ccc(F)cc3)cccc2C1=O, the Potency was “inactive”. In the case of CCN(CC)c1cc2c(cc1F)c(=O)c(S(=O)(=O)c1cc(C)ccc1C)cn2Cc1ccccc1, the Potency is reported as active: 18.4 µM. For Cn1c(N2CCCC2)nc2c1c(=O)n(Cc1ccc(Cl)cc1)c(=O)n2C, the Potency was inconclusive [inhibitor, single point]. In the case of CCOC(=O)c1c(NC(=O)c2ccc(S(=O)(=O)N(CCOC)CCOC)cc2)sc2c1CC(C)(C)NC2(C)C, the Potency is reported as inconclusive [inhibitor, single point]. With Cc1cc(OC(=O)c2ccco2)c(Sc2ccccc2[N+](=O)[O-])c(=O)o1 the Potency was active: 18.4 µM. In the case of Cc1c(/C=C(\C#N)C(=O)Nc2cccc(Cl)c2)c2ccccc2n1Cc1ccccc1Cl, the Potency is reported as inconclusive [inhibitor, partial curve]. In the case of COc1ccc(/C=c2/sc3n(c2=O)NC2(c4ccccc4)N(C)C(=O)N(C)C2(c2ccccc2)N=3)cc1 (configuration not stated), the Potency is reported as inconclusive [inhibitor, single point]. In the case of COc1ccc(O)c(/C=N/NC(=O)c2c(C)nnn2-c2nonc2N)c1, the Potency is reported as active: 8.2 µM. For COc1ccc(C(=O)Oc2cccnc2)cc1OC, the Potency was inconclusive [inhibitor, single point]. For CCOc1ccc(C2=NC(c3cccs3)=Nc3ccc(C(C)C)cc3N2)cc1, the Potency was inconclusive [inhibitor, single point]. In the case of CC1=NN(c2ccc(F)cc2)C(=O)C1C(c1cccc(O)c1)c1c(C)[nH]n(-c2ccc(F)cc2)c1=O (configuration not stated), the Potency is reported as inconclusive [inhibitor, partial curve]. With CCN(CC)CCCNC(=O)/C=C/C(=O)O the Potency was active: 20.6 µM. In the case of O=C(c1ccccc1Br)N1CCN(c2ccccn2)CC1, the Potency is reported as “inactive”. In the case of Cc1c(C(=O)NCc2ccc3c(c2)OCO3)sc(=O)n1Cc1ccc(-c2ccccc2)cc1, the Potency is reported as “inactive”. With O=C(Nc1ccccc1)C1COc2ccccc2O1 (configuration not stated) the Potency was “inactive”. With Cc1cccc(CC2C(=O)Nc3ccccc32)c1 (configuration not stated) the Potency was active: 20.6 µM. In the case of O=C(COC(=O)c1ccccc1F)c1ccc(-n2nncc2-c2ccco2)cc1, the Potency is reported as inconclusive [inhibitor, single point]. For CCCc1cc(-c2n[nH]c(=S)n2CC(C)C)cs1, the Potency was active: 20.6 µM. For COc1cccc(C(=O)N(Cc2cc3cc(C)ccc3[nH]c2=O)CC2CCCO2)c1 (configuration not stated), the Potency was “inactive”. With CCOc1ccc(NC(=O)C2=NN(c3ccccc3)C(=O)CC2)cc1S(=O)(=O)N1CCCCC1 the Potency was inconclusive [inhibitor, single point]. In the case of Oc1ccc(NC(=S)Nc2ccc(F)cc2)cc1, the Potency is reported as inconclusive [inhibitor, full curve, poor fit]. For O=C(c1ccc(Cl)cc1)C1CCN(C(=O)c2ccccc2F)CC1, the Potency was “inactive”. With CN1CCN(c2nc3ccccn3c(=O)c2C=C(C#N)C#N)CC1 the Potency was “inactive”. With CCOc1ccc2nc(N3CCC(C(=O)N4CCN(C(=O)c5ccco5)CC4)CC3)sc2c1 the Potency was active: 23.1 µM. For O=C(COCC(=O)N1CCOCC1)N1CCOCC1, the Potency was “inactive”. In the case of O=C(c1cccs1)N(c1ccc(Cl)cc1)C1C=CS(=O)(=O)C1 (configuration not stated), the Potency is reported as inconclusive [inhibitor, single point]. With CCC1=Nc2cc(C(=O)N3CCCCC3)ccc2Sc2ccc(C)cc21 the Potency was inconclusive [inhibitor, single point]. For Cc1ccc(C(C)C)cc1-n1nnc(-c2cccc(Cc3ccc4ccccc4c3)c2)c1C(C)O (configuration not stated), the Potency was inconclusive [inhibitor, single point]. With CC(=O)c1c(N2CCN(c3cccc(Cl)c3)CC2)nc(=S)n(-c2ccccc2)c1C the Potency was inconclusive [inhibitor, single point]. With CCOc1ccc(S(=O)(=O)N2CCCCC2)cc1NC(=O)Cc1ccccc1 the Potency was inconclusive [inhibitor, partial curve]. For CC(C)=CCC12Oc3cc(O)ccc3C1(O)Oc1cc(O)c([C@H]3C=C(C)CC(c4ccc(O)cc4O)[C@H]3C(=O)c3ccc(O)cc3O)c(O)c1C2=O (some centres not stated), the Potency was active: 25.9 µM. In the case of Nc1cc(-c2ccc(Br)cc2)nc2cc(-c3ccccc3)nn12, the Potency is reported as inconclusive [inhibitor, single point]. For COc1ccccc1N1CCN(c2ncnc3c2cnn3C)CC1, the Potency was active: 18.4 µM. In the case of Oc1ccc(/C=N/N(Cc2ccccc2)c2ccccc2)c(O)c1O, the Potency is reported as active: 18.4 µM. For COc1ccc(N=[N+]([O-])c2ccc(OC)cc2)cc1, the activity change, negative = growth inhibition was inconclusive: -37.9% [inhibitor]. With CC1=NN(C(N)=S)C(=O)C1N=Nc1ccccc1C (configuration not stated) the Potency was active: 1.64 µM. In the case of CCOc1ccc(C2c3cc(OCC)c(OCC)cc3CC(=O)N2c2ccc(C(=O)O)cc2)cc1OCC (configuration not stated), the Potency is reported as “inactive”.
